# Data as given in the supplement of paper PMC8728848.
# The other results are listed elsewhere or left out.
# Experiments:
# Test in all cases: glycan array binding signal (z-score within array); higher = stronger binding
# Conditions in all cases: glycan notation: IUPAC condensed, linker removed
# [1] = target: Neu5Ac(a2-6)GlcNAc(b1-4)GlcNAc(b1-4)GlcNAc
# Method in brief: (§1)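 Glycan array data were curated from 3228 arrays in the Consortium for Functional Glycomics database and kept only where the protein sequence was available. Glycan names were converted to IUPAC-condensed notation, and columns mapping to the same glycan were averaged. The binding signal is a within-array Z-score, averaged across arrays of the same protein sequence at different concentrations or buffers and across linkers. Negative Z-scores can be read as non-binding.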
# [2] = target: Neu5Ac(a2-8)Neu5Ac
# Method in brief: as §1
# [3] = target: Neu5Ac(a2-8)Neu5Ac(a2-3)Gal(b1-3)GalNAc(b1-4)[Neu5Ac(a2-3)]Gal(b1-4)Glc
# Method in brief: as §1
# [4] = target: Neu5Ac(a2-8)Neu5Ac(a2-3)Gal(b1-3)GalNAc(b1-4)[Neu5Ac(a2-8)Neu5Ac(a2-3)]Gal(b1-4)Glc
# Method in brief: as §1
# [5] = target: Neu5Ac(a2-8)Neu5Ac(a2-3)Gal(b1-4)Glc
# Method in brief: as §1
# [6] = target: Neu5Ac(a2-8)Neu5Ac(a2-3)Gal(b1-4)GlcNAc
# Method in brief: as §1
# [7] = target: Neu5Ac(a2-8)Neu5Ac(a2-3)[Gal(b1-3)GalNAc(b1-4)]Gal(b1-4)Glc
# Method in brief: as §1
# [8] = target: Neu5Ac(a2-8)Neu5Ac(a2-3)[GalNAc(b1-4)]Gal(b1-4)Glc
# Method in brief: as §1
# [9] = target: Neu5Ac(a2-8)Neu5Ac(a2-8)Neu5Ac
# Method in brief: as §1
# [10] = target: Neu5Ac(a2-8)Neu5Ac(a2-8)Neu5Ac(a2-3)Gal(b1-4)Glc
# Method in brief: as §1
# [11] = target: Neu5Ac(a2-8)Neu5Ac(a2-8)Neu5Ac(a2-3)[Gal(b1-3)GalNAc(b1-4)]Gal(b1-4)Glc
# Method in brief: as §1
# [12] = target: Neu5Ac(a2-8)Neu5Ac(a2-8)Neu5Ac(a2-3)[GalNAc(b1-4)]Gal(b1-4)Glc
# Method in brief: as §1
# [13] = target: Neu5Ac(a2-8)Neu5Ac(a2-8)Neu5Ac(a2-8)Neu5Ac(a2-3)[GalNAc(b1-4)]Gal(b1-4)Glc
# Method in brief: as §1
# [14] = target: Neu5Ac(a2-8)Neu5Gc(a2-3)Gal(b1-4)GlcNAc
# Method in brief: as §1
# [15] = target: Neu5Ac(b2-6)Gal(b1-4)GlcNAc
# Method in brief: as §1
# [16] = target: Neu5Ac(b2-6)GalNAc
# Method in brief: as §1
# [17] = target: Neu5Ac9Ac(a2-3)Gal(b1-3)GlcNAc
# Method in brief: as §1
# [18] = target: Neu5Ac9Ac(a2-3)Gal(b1-4)GlcNAc
# Method in brief: as §1
# [19] = target: Neu5Ac9Ac(a2-6)Gal(b1-4)GlcNAc
# Method in brief: as §1
# [20] = target: Neu5Gc(a2-3)Gal(b1-3)GlcNAc
# Method in brief: as §1
# [21] = target: Neu5Gc(a2-3)Gal(b1-3)[Fuc(a1-4)]GlcNAc
# Method in brief: as §1
# [22] = target: Neu5Gc(a2-3)Gal(b1-4)Glc
# Method in brief: as §1
# [23] = target: Neu5Gc(a2-3)Gal(b1-4)GlcNAc
# Method in brief: as §1
# [24] = target: Neu5Gc(a2-3)Gal(b1-4)GlcNAc(b1-3)Gal(b1-4)GlcNAc(b1-2)Man(a1-3)[Neu5Gc(a2-3)Gal(b1-4)GlcNAc(b1-3)Gal(b1-4)GlcNAc(b1-2)Man(a1-6)]Man(b1-4)GlcNAc(b1-4)GlcNAc
# Method in brief: as §1
# [25] = target: Neu5Gc(a2-3)Gal(b1-4)[Fuc(a1-3)]GlcNAc
# Method in brief: as §1
# [26] = target: Neu5Gc(a2-6)Gal(b1-4)GlcNAc
# Method in brief: as §1
# [27] = target: Neu5Gc(a2-6)GalNAc
# Method in brief: as §1
# [28] = target: Neu5Gc(a2-8)Neu5Ac(a2-3)Gal(b1-4)GlcNAc
# Method in brief: as §1
# [29] = target: Neu5Gc(a2-8)Neu5Gc(a2-3)Gal(b1-4)GlcNAc
# Method in brief: as §1
# [30] = target: Neu5Gc(a2-8)Neu5Gc(a2-3)Gal(b1-4)GlcNAc(b1-3)Gal(b1-4)GlcNAc
# Method in brief: as §1
# [31] = target: Neu5Gc(a2-8)Neu5Gc(a2-6)Gal(b1-4)GlcNAc
# Method in brief: as §1
# [32] = target: Neu5Gc(b2-6)Gal(b1-4)GlcNAc
# Method in brief: as §1
binder,measurement,setting,value
GS13846A-bth-444-19-444 (Bacteroides thetaiotaomicron) (protein) SCENEFDVSDKADSLISVTVNTLNNQAAYNVGETAQAELWIQRGGLKDASGKVQFVVDPLLLDSLNQEDKTNYELLPENCYEMTNTEFTVDKNELCGYITYHPEKILALSAYNETKYVLPLRLISNDLAINPARNTSFLAFTILEPIVHISNAGVYNINPDLTSTMDIQIGVPFTNKWDILCNLTEDLSLIDEYNQINKVNFTLLPENAYTAPESVTLQEGVSQITASYQLKNNLVPGNYILPIKIGSITASQGGVPNNSLVIDEESNVLFCIVKEGNKINKSGWEVIECSSEHAGNEATYMIDDNESTYWHCKFKNEAGSSVPPFHFIIDMKKEITIAQIDLLNRGDGAANNIKWVEFYASNNNSEWDKIGAGDFNDEGTRATFRYYVKSTKARYLKLIIPEGYGNNCPPAAIRELTVYGLEGNN,glycan array binding signal (z-score),[1],-0.059
same,glycan array binding signal (z-score),[2],-0.237
same,glycan array binding signal (z-score),[3],-0.371
same,glycan array binding signal (z-score),[4],-0.149
same,glycan array binding signal (z-score),[5],-0.443
same,glycan array binding signal (z-score),[6],-0.36
same,glycan array binding signal (z-score),[7],-0.35
same,glycan array binding signal (z-score),[8],-0.236
same,glycan array binding signal (z-score),[9],-0.236
same,glycan array binding signal (z-score),[10],-0.358
same,glycan array binding signal (z-score),[11],-0.173
same,glycan array binding signal (z-score),[12],-0.444
same,glycan array binding signal (z-score),[13],-0.276
same,glycan array binding signal (z-score),[14],-0.233
same,glycan array binding signal (z-score),[15],-0.298
same,glycan array binding signal (z-score),[16],-0.132
same,glycan array binding signal (z-score),[17],-0.173
same,glycan array binding signal (z-score),[18],-0.195
same,glycan array binding signal (z-score),[19],-0.092
same,glycan array binding signal (z-score),[20],-0.14
same,glycan array binding signal (z-score),[21],0.04
same,glycan array binding signal (z-score),[22],-0.111
same,glycan array binding signal (z-score),[23],-0.104
same,glycan array binding signal (z-score),[24],-0.52
same,glycan array binding signal (z-score),[25],-0.428
same,glycan array binding signal (z-score),[26],0.024
same,glycan array binding signal (z-score),[27],-0.322
same,glycan array binding signal (z-score),[28],-0.419
same,glycan array binding signal (z-score),[29],-0.385
same,glycan array binding signal (z-score),[30],-0.325
same,glycan array binding signal (z-score),[31],-0.262
same,glycan array binding signal (z-score),[32],-0.035
